This passage reports self-cleavage results from the RNAGym collection of RNA variant scans (doi:10.1093/nar/gkz1192).

The source gives no read counts; variants with many changes may rest on few reads.

B1: CPEB3 Ribozyme (parent)
chain: UAACAGGGGGCCACAGCAGAAGCGUUCACGUCGCAGCCCCUGUCAGAUUCUGGUGAAUCUGCGAAUUCUGCUGUAUAUCUC

In this data set the parent is B1. As to the kind of experiment: self-cleavage, relative activity (ratio to wild type); higher = more cleavage; in vitro, sequencing. In a few lines: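 Barcoded CPEB3 ribozyme mutants, produced by rounds of error-prone PCR, self-cleaved while being transcribed with T7 RNA polymerase for 5 hours at 37°C and during a subsequent 15 min DNase I step before EDTA was added. Sequencing of template-switched cDNA on Illumina gave cleaved and total reads, and DNA sequencing assigned barcodes to variants. Each variant's relative activity is its cleaved/total read fraction divided by the unmutated ribozyme's fraction, averaged across three batches. A variant needed a minimum of 5 reads.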
Take A18G U66C A77G: the self-cleavage amounted to 0.29.
Under A18G U25C U26C U41A U43A U49A stands 0.21; under A18G U25A A64G U74C, 0.31.
With A18G U41C U78C, the self-cleavage stood at 0.77.
On to A18G U72A U74A, for which the self-cleavage turned out to be 0.65.
With A18G U43C U54C U67A, the self-cleavage turned out to be 0.04.
For the variant A18U A20G U26A U58A, the self-cleavage turned out to be 0.24.
As to A18G U51C U78C, the self-cleavage is 0.62.
The same measure for A18G U25C U43A U58G: 0.07; for A18G U72C U76A: 0.67.
As for A18G U41C U80C, the self-cleavage is 0.96.
The same measure for A18G U54C A56G: 0.41; for A18G U48A A77U: 0.19.
Turning to A18G U31A U60C A65G A77C U78C, the self-cleavage stood at 0.11.
The same measure for A18G U25C A45U: 0.39; for A18U A20G A21G U51C G52A: 0.35.
With A18G U43C U67C U78A, the self-cleavage amounted to 0.1.
The same measure for A18G U48C A57C: 0.19; for A18G U31C U41A U49C C68A U72C: 0.09; for A18G U60A U80C: 0.36.
Under A18G U26C C34U U48C U51A A64U stands 0.06; under A18G U54A U74A U78C, 0.81; under A18G U48C C50A G55U, 0.13.
On to A18G U72C A75G A77U, for which the self-cleavage amounted to 0.5.
Under A18G U51A C79U stands 1.02.
The same measure for A18G U49C G63A: 0.19.
The same measure for A18G U25C U60A: 0.13.
For A18G U26A U43A U58C, the self-cleavage turned out to be 0.18.
Consider A18G U54C A57G U66G, for which the self-cleavage was found to be 0.25.
Turning to A18G U69C U72C, the self-cleavage was determined as 1.23.
The same measure for A18G U41C U43C A64G U78C: 0.3; for A18G U49A C71G U78C: 0.15; for A18G U48C C81G: 0.57.
Take A18G U25C U72A A75G: the self-cleavage turned out to be 0.17.
Under A18G U26C A45G stands 0.07.
Under A18G U54C A64G U72G U78C stands 0.27.
Under A18G U51A A56G A64G U69C U74C stands 0.37; under A18G U25G G73U, 0.59; under A18G U31A U48C U49C, 0.09.
In the case of A18G U41C U51C, the self-cleavage turned out to be 0.67.
Under A18G U51C C71U stands 0.38.
On to A18G U43A U72C A75U U80C, for which the self-cleavage turned out to be 0.84.
The same measure for A18G U41A A45G A56U U60C: 0.
The same measure for A18G U25A C32U U41A C50U: 0.24.
The same measure for A18G U43A U48A U51A U60G: 0.06; for A18G U31A U48C: 0.38; for A18G U31C U60A U80C: 0.17.
As to A18G U31C C34U U41C, the self-cleavage amounted to 0.18.
Under A18G U60G A64G G70C stands 0.12.
Turning to A18G U31A G53A U66A C68G U78C, the self-cleavage came out at 0.08.
The same measure for A18G U26A U43C A75G: 0.13; for A18G U41C U69C: 1.13.
The same measure for A18G U25C A28G A35U A56G: 0.06; for A18G U25C C37A U54A A64C U72C: 0.05.
Under A18G U41A U51A stands 0.37.
Consider A18G U41A U60A, for which the self-cleavage stood at 0.28.
Under A18G U31A A57G stands 0.44.
The same measure for A18G U26C G33A A77U: 0.06; for A18G U31A U54C U72C: 0.31.
Under A18G U25C U60A A64U stands 0.08; under A18G U31C G53A A64G U74A, 0.11; under A18G U54C G55A, 0.48.
Consider A18G U25A C29U C50U U54A, for which the self-cleavage was determined as 0.13.
The same measure for A18G U26C U41C U43C U66A: 0.07.
Under A18G U25C U31A U54A U67C U72C A77G stands 0.08; under A18G U54C U76C, 0.51; under A18G U25A U54A U74G A75G, 0.19.
On to A18G U25C C50A, for which the self-cleavage was found to be 0.14.
As to A18G U26C U51A U78A, the self-cleavage stood at 0.3.
The same measure for A18G U25C U41C U74A: 0.42; for A18G U69G G73A: 0.47; for A18G U41A U67A: 0.38.
Under A18G U48C U49C stands 0.42; under A18G U43C U54C A56U, 0.15; under A18G U26C C40A U54C, 0.18.
For the variant A18G U54C U80A, the self-cleavage came to 1.04.
Consider A18G U31C U41A U76C A77G, for which the self-cleavage worked out at 0.26.
The same measure for A18G U25A U41A: 0.13; for A18G U26C G73C U78C: 0.64; for A18G U26C A35U A47G U60C U78C: 0.07.
On to A18G U49C A65G U80A, for which the self-cleavage worked out at 0.11.
For the variant A18G U31C A47G U49G U66C U72C U78C, the self-cleavage turned out to be 0.23.
With A18G U31A U58A, the self-cleavage came to 0.1.
As for A18G U41A U54C, the self-cleavage came to 0.11.
As to A18G U26A A56G, the self-cleavage is 0.5.
The same measure for A18G U66C U72G: 0.15; for A18G U72A C79U: 0.39; for A18G U25C C37U U51A C59U U72A: 0.06.
The same measure for A18G U43A U80C: 1.03.
In the case of A18G U43A U80A, the self-cleavage turned out to be 1.09.
The same measure for A18G U48C A56U A65G: 0.08.
Under A18G U26C U69A stands 0.19.
The same measure for A18G U49C A75U: 0.26.
As to A18U A20G A75U, the self-cleavage was determined as 0.47.
For the variant A18G U51A U72C, the self-cleavage was 0.35.
Under A18G U49C A65G stands 0.14; under A18G U54C U58G U67A, 0.38.
The same measure for A18G U41C A65U: 0.18; for A18U A20G G24A G53C U66A: 0.12.
Take A18G U26C U31C U72A U80C: the self-cleavage came out at 0.06.
On to A18G U41A U80A, for which the self-cleavage was determined as 0.31.
Under A18G U41A U80C stands 0.24.
The same measure for A18G U26A U54C: 0.53.
For A18G U51C A65U U80C, the self-cleavage came out at 0.46.
For the variant A18G U31A U43A C71G, the self-cleavage worked out at 0.25.
For A18G U43A A45G A56G, the self-cleavage amounted to 0.27.
Turning to A18G U48C U80A, the self-cleavage is 0.46.
Turning to A18G U31C A45G G55A, the self-cleavage stood at 0.07.
Under A18G U25C U60C U72C stands 0.14; under A18G U43A U51A, 0.49.
Under A18G U54C U60G stands 0.18.
Consider A18G U26C U41A A56G, for which the self-cleavage was found to be 0.23.
Under A18U A20C U78A stands 0.23.
Turning to A18G U41C A45G A56G U78C, the self-cleavage amounted to 0.31.
The same measure for A18G U31C U41C A57G A64C U67C: 0.07; for A18G U67C U72A C81U: 0.25; for A18G U26C U48C A56G U80C: 0.47.
The same measure for A18G U26C U49C A56G A65G: 0; for A18G U54C U58A A64G: 0.15.
Consider A18G U41C U51C U66C, for which the self-cleavage is 0.43.
The same measure for A18G U43C U51C U58C U74A: 0.3; for A18U A20G A45U A47C U49C U72C: 0.28.
Under A18G U51C U72A stands 0.37; under A18G U54G U72A, 0.39; under A18G U25C A45G U60A U66A, 0.06.
For A18G U43C A57G U60A, the self-cleavage came to 0.2.
The same measure for A18G U78C U80C: 0.8.
In the case of A18G U31C U41C U48A, the self-cleavage came out at 0.35.
Under A18G U25G A56G G73U stands 0.25; under A18G U49A G55A, 0.28.
A18G U26C U43A U49A A57U: the self-cleavage stood at 0.09.
Under A18G U26A U41C U48C A64U U67A stands 0.12; under A18G U60A U69A U78C C81U, 0.2; under A18G U41C C59G, 0.24.
Under A18G U25C A47G C81G stands 0.27; under A18G U48A G61A, 0.12; under A18G U31C C62G U69C U78A, 0.07.
For A18G U25A U26C U49C U66C, the self-cleavage came out at 0.08.
Regarding A18G U26C A45G U54C U72C, the self-cleavage was determined as 0.3.
In the case of A18G U43A U58G U69C, the self-cleavage amounted to 0.15.
With A18G U41C U74C, the self-cleavage came out at 0.48.
Under A18G U48C U51C C68U stands 0.29; under A18G U76A U80C, 1.04.
A18U A20G C23A U25G A57U A77U: the self-cleavage stood at 0.07.
For A18G U60C C62U U80C, the self-cleavage turned out to be 0.22.
The same measure for A18G U51C C68U: 0.43; for A18G U48C U51C A56U: 0.22; for A18G U43C A75C: 0.37.
Under A18G U26A U41G stands 0.09; under A18U A20G C29U A65U U67C, 0.21.
Under A18G U26A A28G G46A A56G U80A stands 0.08; under A18G U26C A28U U54A, 0.08; under A18G U41C U60C G63C, 0.17.
For A18G U26A C27U A77G, the self-cleavage is 0.17.
For A18G U51A U76G, the self-cleavage was determined as 0.79.
With A18G U51A U76C, the self-cleavage worked out at 0.92.
Under A18G U48C U74A stands 0.75.
As for A18G U26A A64G A65U, the self-cleavage turned out to be 0.23.
As for A18G U41G U69G, the self-cleavage stood at 0.31.
Under A18G U58C U66C stands 0.24.
Consider A18G U43C A77U, for which the self-cleavage came out at 0.34.
Under A18G U41C U49C A64G U78C stands 0.61; under A18G U26C A45U U51C, 0.31.
Under A18G U60C G70C U80C stands 0.18.
The same measure for A18G U25C U58A U66C A77U U80A: 0.03.
Regarding A18G U25C C38G U43C A45G U74A, the self-cleavage worked out at 0.05.
The same measure for A18U A20G U41A U43C U58C A65G U80A: 0.03.
